Results reported in the supplement of paper PMC8728848.
Some of the results follow.

How the values were obtained:
Assay in all cases: glycan array binding signal (z-score within array); higher = stronger binding
Conditions in all cases: glycan notation: IUPAC condensed, linker removed
[1] = target: Neu5Ac(a2-3)Gal(b1-3)GalNAc
Method in brief: (§1)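 The binding signal is a Z-score computed within each array and averaged over linkers. Arrays of the same protein sequence at different concentrations or buffers were also averaged together. Data originate from 3228 arrays in the Consortium for Functional Glycomics database, kept only where the protein sequence was available.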

[2] = target: Neu5Ac(a2-3)Gal(b1-3)GalNAc(b1-3)Gal(a1-4)Gal(b1-4)Glc
Method in brief: as §1

[3] = target: Neu5Ac(a2-3)Gal(b1-3)GalNAc(b1-4)Gal(b1-4)Glc
Method in brief: as §1

[4] = target: Neu5Ac(a2-3)Gal(b1-3)GalNAc(b1-4)[Neu5Ac(a2-3)]Gal(b1-4)Glc
Method in brief: as §1

[5] = target: Neu5Ac(a2-3)Gal(b1-3)GalNAc(b1-4)[Neu5Ac(a2-8)Neu5Ac(a2-3)]Gal(b1-4)Glc
Method in brief: as §1

[6] = target: Neu5Ac(a2-3)Gal(b1-3)GalNAc6S
Method in brief: as §1

[7] = target: Neu5Ac(a2-3)Gal(b1-3)GlcNAc
Method in brief: as §1

[8] = target: Neu5Ac(a2-3)Gal(b1-3)GlcNAc(b1-2)Man
Method in brief: as §1

[9] = target: Neu5Ac(a2-3)Gal(b1-3)GlcNAc(b1-2)Man(a1-3)[GlcNAc(b1-4)][Neu5Ac(a2-3)Gal(b1-3)GlcNAc(b1-2)Man(a1-6)]Man(b1-4)GlcNAc(b1-4)GlcNAc
Method in brief: as §1

[10] = target: Neu5Ac(a2-3)Gal(b1-3)GlcNAc(b1-2)Man(a1-3)[Neu5Ac(a2-3)Gal(b1-3)GlcNAc(b1-2)Man(a1-6)]Man(b1-4)GlcNAc(b1-4)GlcNAc
Method in brief: as §1

[11] = target: Neu5Ac(a2-3)Gal(b1-3)GlcNAc(b1-2)[Neu5Ac(a2-3)Gal(b1-3)GlcNAc(b1-4)]Man(a1-6)[Neu5Ac(a2-3)Gal(b1-3)GlcNAc(b1-2)Man(a1-3)]Man(b1-4)GlcNAc(b1-4)GlcNAc
Method in brief: as §1

[12] = target: Neu5Ac(a2-3)Gal(b1-3)GlcNAc(b1-3)Gal(b1-3)GlcNAc
Method in brief: as §1

[13] = target: Neu5Ac(a2-3)Gal(b1-3)GlcNAc(b1-3)Gal(b1-4)GlcNAc
Method in brief: as §1

[14] = target: Neu5Ac(a2-3)Gal(b1-3)GlcNAc(b1-3)GalNAc
Method in brief: as §1

[15] = target: Neu5Ac(a2-3)Gal(b1-3)GlcNAc(b1-6)GalNAc
Method in brief: as §1

[16] = target: Neu5Ac(a2-3)Gal(b1-3)GlcNAc6S
Method in brief: as §1

[17] = target: Neu5Ac(a2-3)Gal(b1-3)[Fuc(a1-4)]GlcNAc
Method in brief: as §1

[18] = target: Neu5Ac(a2-3)Gal(b1-3)[Fuc(a1-4)]GlcNAc(b1-3)Gal(b1-3)[Fuc(a1-4)]GlcNAc
Method in brief: as §1

[19] = target: Neu5Ac(a2-3)Gal(b1-3)[Fuc(a1-4)]GlcNAc(b1-3)Gal(b1-4)[Fuc(a1-3)]GlcNAc
Method in brief: as §1

[20] = target: Neu5Ac(a2-3)Gal(b1-3)[GlcNAc(b1-6)]GalNAc
Method in brief: as §1

[21] = target: Neu5Ac(a2-3)Gal(b1-3)[Neu5Ac(a2-6)]GalNAc
Method in brief: as §1

[22] = target: Neu5Ac(a2-3)Gal(b1-3)[Neu5Ac(a2-6)]GlcNAc(b1-3)[Fuc(a1-3)[Gal(b1-4)]GlcNAc(b1-6)]Gal(b1-4)Glc
Method in brief: as §1

[23] = target: Neu5Ac(a2-3)Gal(b1-3)]Neu5Ac(a2-3)Gal(b1-4)]GlcNAc
Method in brief: as §1

Neu5Ac(a2-3)Gal(b1-4)Glc = target: Neu5Ac(a2-3)Gal(b1-4)Glc
Method in brief: as §1

[24] = target: Neu5Ac(a2-3)Gal(b1-4)GlcNAc
Method in brief: as §1

[25] = target: Neu5Ac(a2-3)Gal(b1-4)GlcNAc(b1-2)Man
Method in brief: as §1

[26] = target: Neu5Ac(a2-3)Gal(b1-4)GlcNAc(b1-2)Man(a1-3)[GlcNAc(b1-4)][Neu5Ac(a2-3)Gal(b1-4)GlcNAc(b1-2)Man(a1-6)]Man(b1-4)GlcNAc(b1-4)GlcNAc
Method in brief: as §1

[27] = target: Neu5Ac(a2-3)Gal(b1-4)GlcNAc(b1-2)Man(a1-3)[Neu5Ac(a2-3)Gal(b1-4)GlcNAc(b1-2)Man(a1-6)]Man(b1-4)GlcNAc(b1-4)GlcNAc
Method in brief: as §1

[28] = target: Neu5Ac(a2-3)Gal(b1-4)GlcNAc(b1-2)Man(a1-3)[Neu5Ac(a2-3)Gal(b1-4)GlcNAc(b1-2)Man(a1-6)]Man(b1-4)GlcNAc(b1-4)[Fuc(a1-6)]GlcNAc
Method in brief: as §1

[29] = target: Neu5Ac(a2-3)Gal(b1-4)GlcNAc(b1-2)Man(a1-3)[Neu5Ac(a2-6)Gal(b1-4)GlcNAc(b1-2)Man(a1-6)]Man(b1-4)GlcNAc(b1-4)GlcNAc
Method in brief: as §1

[30] = target: Neu5Ac(a2-3)Gal(b1-4)GlcNAc(b1-2)[Neu5Ac(a2-3)Gal(b1-4)GlcNAc(b1-4)]Man(a1-3)[GlcNAc(b1-4)][Neu5Ac(a2-3)Gal(b1-4)GlcNAc(b1-2)[Neu5Ac(a2-3)Gal(b1-4)GlcNAc(b1-6)]Man(a1-6)]Man(b1-4)GlcNAc(b1-4)GlcNAc
Method in brief: as §1

[31] = target: Neu5Ac(a2-3)Gal(b1-4)GlcNAc(b1-2)[Neu5Ac(a2-3)Gal(b1-4)GlcNAc(b1-4)]Man(a1-3)[GlcNAc(b1-4)][Neu5Ac(a2-3)Gal(b1-4)GlcNAc(b1-4)Man(a1-6)]Man(b1-4)GlcNAc(b1-4)GlcNAc
Method in brief: as §1

[32] = target: Neu5Ac(a2-3)Gal(b1-4)GlcNAc(b1-2)[Neu5Ac(a2-3)Gal(b1-4)GlcNAc(b1-6)]Man(a1-6)[Neu5Ac(a2-3)Gal(b1-4)GlcNAc(b1-2)Man(a1-3)][GlcNAc(b1-4)]Man(b1-4)GlcNAc(b1-4)GlcNAc
Method in brief: as §1

[33] = target: Neu5Ac(a2-3)Gal(b1-4)GlcNAc(b1-3)Gal
Method in brief: as §1

[34] = target: Neu5Ac(a2-3)Gal(b1-4)GlcNAc(b1-3)Gal(b1-3)GlcNAc
Method in brief: as §1

[35] = target: Neu5Ac(a2-3)Gal(b1-4)GlcNAc(b1-3)Gal(b1-4)GlcNAc
Method in brief: as §1

[36] = target: Neu5Ac(a2-3)Gal(b1-4)GlcNAc(b1-3)Gal(b1-4)GlcNAc(b1-2)Man(a1-3)[Neu5Ac(a2-3)Gal(b1-4)GlcNAc(b1-3)Gal(b1-4)GlcNAc(b1-2)Man(a1-6)]Man(b1-4)GlcNAc(b1-4)GlcNAc
Method in brief: as §1

[37] = target: Neu5Ac(a2-3)Gal(b1-4)GlcNAc(b1-3)Gal(b1-4)GlcNAc(b1-3)Gal(b1-4)GlcNAc
Method in brief: as §1

[38] = target: Neu5Ac(a2-3)Gal(b1-4)GlcNAc(b1-3)Gal(b1-4)GlcNAc(b1-3)Gal(b1-4)GlcNAc(b1-2)Man(a1-3)[Neu5Ac(a2-3)Gal(b1-4)GlcNAc(b1-3)Gal(b1-4)GlcNAc(b1-3)Gal(b1-4)GlcNAc(b1-2)Man(a1-6)]GalNAc
Method in brief: as §1

[39] = target: Neu5Ac(a2-3)Gal(b1-4)GlcNAc(b1-3)Gal(b1-4)GlcNAc(b1-3)GalNAc
Method in brief: as §1

[40] = target: Neu5Ac(a2-3)Gal(b1-4)GlcNAc(b1-3)Gal(b1-4)GlcNAc(b1-3)[Neu5Ac(a2-3)Gal(b1-4)GlcNAc(b1-3)Gal(b1-4)GlcNAc(b1-6)]GalNAc
Method in brief: as §1

[41] = target: Neu5Ac(a2-3)Gal(b1-4)GlcNAc(b1-3)Gal(b1-4)GlcNAc(b1-6)[Gal(b1-3)]GalNAc
Method in brief: as §1

[42] = target: Neu5Ac(a2-3)Gal(b1-4)GlcNAc(b1-3)Gal(b1-4)[Fuc(a1-3)]GlcNAc
Method in brief: as §1

[43] = target: Neu5Ac(a2-3)Gal(b1-4)GlcNAc(b1-3)GalNAc
Method in brief: as §1

[44] = target: Neu5Ac(a2-3)Gal(b1-4)GlcNAc(b1-3)[Neu5Ac(a2-3)Gal(b1-4)GlcNAc(b1-6)]GalNAc
Method in brief: as §1

B1: Mg3lysM (Mycosphaerella graminicola) (protein)
chain: APQNPPTSCSAAPQPTGTGSPGTVCGSTTFTNYTVKAGDTLGAIAKQYNSGVCDIAKVNGIDNPDYIKPDQVLSIPANCVTPDNTSCVKPVPVITNTCVLGVGSTYTVKSGDSFSAIATSFNITLASLEARNPQIPNYDLIFPGQVINTPLCPNSVCDSIGTYVIESGDIFYNLAQSNNVTVGQLESLNVNVNVTDIHPGDIIILPHNCHNITASA
[1]
  glycan array binding signal (z-score): -0.102
[2]
  glycan array binding signal (z-score): -0.102
[3]
  glycan array binding signal (z-score): 0.013
[4]
  glycan array binding signal (z-score): -0.107
[5]
  glycan array binding signal (z-score): -0.087
[6]
  glycan array binding signal (z-score): -0.102
[7]
  glycan array binding signal (z-score): -0.042
[8]
  glycan array binding signal (z-score): -0.079
[9]
  glycan array binding signal (z-score): -0.062
[10]
  glycan array binding signal (z-score): -0.077
[11]
  glycan array binding signal (z-score): 0.03
[12]
  glycan array binding signal (z-score): -0.107
[13]
  glycan array binding signal (z-score): -0.1
[14]
  glycan array binding signal (z-score): -0.12
[15]
  glycan array binding signal (z-score): -0.047
[16]
  glycan array binding signal (z-score): -0.154
[17]
  glycan array binding signal (z-score): -0.121
[18]
  glycan array binding signal (z-score): -0.018
[19]
  glycan array binding signal (z-score): 0.086
[20]
  glycan array binding signal (z-score): -0.183
[21]
  glycan array binding signal (z-score): -0.102
[22]
  glycan array binding signal (z-score): 0.077
[23]
  glycan array binding signal (z-score): -0.041
Neu5Ac(a2-3)Gal(b1-4)Glc
  glycan array binding signal (z-score): 0.019
[24]
  glycan array binding signal (z-score): -0.097
[25]
  glycan array binding signal (z-score): -0.135
[26]
  glycan array binding signal (z-score): 0.008
[27]
  glycan array binding signal (z-score): -0.02
[28]
  glycan array binding signal (z-score): -0.085
[29]
  glycan array binding signal (z-score): -0.088
[30]
  glycan array binding signal (z-score): 0.036
[31]
  glycan array binding signal (z-score): -0.037
[32]
  glycan array binding signal (z-score): -0.095
[33]
  glycan array binding signal (z-score): -0.078
[34]
  glycan array binding signal (z-score): -0.035
[35]
  glycan array binding signal (z-score): -0.099
[36]
  glycan array binding signal (z-score): -0.142
[37]
  glycan array binding signal (z-score): -0.099
[38]
  glycan array binding signal (z-score): -0.06
[39]
  glycan array binding signal (z-score): -0.074
[40]
  glycan array binding signal (z-score): 0.153
[41]
  glycan array binding signal (z-score): -0.077
[42]
  glycan array binding signal (z-score): -0.082
[43]
  glycan array binding signal (z-score): -0.069
[44]
  glycan array binding signal (z-score): 0.02
